Reference: the supplement of paper PMC4166925
± gives the standard deviation of the averaged measurements. Whole data set: some 33,000 sequences, median “E-score (dimensionless, -0.5 to 0.5)” near -0.046, cut for the highest 2% near 0.36. The list shows a part of the results.

test system: T1, SpTbr T-box DNA-binding domain (GST fusion); assay: PBM E-score of 8-mer (E-score (dimensionless, -0.5 to 0.5)); Tbr is Tbrain of the sea star Patiria miniata (Pm) or the sea urchin Strongylocentrotus purpuratus (Sp); higher = stronger binding preference; most listed sequences are background and not binding sites; details: the construct has about 5 more residues each side
T1 sequence: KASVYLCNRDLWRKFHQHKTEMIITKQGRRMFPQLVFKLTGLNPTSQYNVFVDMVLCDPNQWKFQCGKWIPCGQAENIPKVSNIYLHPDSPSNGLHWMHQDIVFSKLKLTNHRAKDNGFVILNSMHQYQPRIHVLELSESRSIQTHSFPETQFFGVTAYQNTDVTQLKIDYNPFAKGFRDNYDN
Experimental: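 Universal protein-binding microarray (Agilent AMADID 016060, 60-bp probes with a 35-bp variable region) incubated with 200 nM GST-fused Strongylocentrotus purpuratus Tbr T-box DNA-binding domain (residues 362-554) in PBS pH 7.5. Scored for every ungapped 8-mer (given with its reverse complement) as E-score (range -0.5 to 0.5; >0.45 counts as bound) and Z-score of median probe intensity. Two replicate arrays (datasets 1 and 2).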
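Note: protein at 200 nM in PBS on universal double-stranded arrays.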

Sequence | PBM E-score of 8-mer
TGGATCCA | -0.189 ± 0.11
GGCGAAAC | -0.00507 ± 0.028
ATTTGCGC | 0.146 ± 0.046
GATCCCAC | 0.189 ± 0.043
AATCTTAG | -0.117 ± 0.033
AGTGTTAT | 0.372 ± 0.045
GAGGACAA | 0.00478 ± 0.025
ATAGCCCA | -0.13 ± 0.078
CCCCGCGA | 0.179 ± 0.044
CCCTGACA | 0.192 ± 0.032
CGGAGGTC | -0.151 ± 0.0063
TACAACGA | -0.274 ± 0.042
CAATTTGA | -0.174 ± 0.029
ATAAGCTC | -0.0656 ± 0.071
CGAAACCC | -0.0104 ± 0.06
ACACGCTG | 0.132 ± 0.035
CATAGTTA | -0.0119 ± 0.048
ACTTCGCT | 0.00782 ± 0.026
AGCGTGGC | 0.0797 ± 0.084
CTGTCGGC | 0.208 ± 0.04
CCAGCTGC | -0.075 ± 0.11
GATTTGAC | 0.103 ± 0.04
AATCTATG | -0.223 ± 0.062
CGATCCCG | -0.0498 ± 0.05
TATGGTGA | 0.1265 ± 0.00047

Sequence | PBM E-score of 8-mer
GAGGGGCC | -0.213 ± 0.029
CTCCGCCA | 0.046 ± 0.039
CCTTACAA | -0.026 ± 0.032
AGTAGTAG | -0.0724 ± 0.017
AATATACT | -0.284 ± 0.14
ACTTGCCC | 0.0174 ± 0.014
GCTCAGCC | -0.19 ± 0.043
GGGACCAA | -0.0735 ± 0.15
CAAACTAA | -0.163 ± 0.04
AAGGATTC | -0.18 ± 0.067
ACCTTCCC | -0.0803 ± 0.011
CTAGCACC | 0.415 ± 0.014
GACTGGTA | 0.0027 ± 0.036
AGCACTTG | 0.168 ± 0.018
AAACGCAG | -0.0888 ± 0.067
AAGTTCAG | -0.223 ± 0.036
CGCTGACC | -0.0598 ± 0.079
AGTTAAGA | -0.17 ± 0.025
GACCATAC | -0.206 ± 0.012
GGCGACCC | 0.111 ± 0.043
CGTATTGC | -0.144 ± 0.048
ACGTTGGC | 0.189 ± 0.0034
GGGGTTAC | -0.202 ± 0.012
CTTGGACC | -0.253 ± 0.015
CGGGAATA | -0.0588 ± 0.042

Sequence | PBM E-score of 8-mer
AGCAGAAC | -0.263 ± 0.055
CTATGTGC | 0.116 ± 0.028
CGGGCGAC | 0.153 ± 0.015
AGTCGTGA | 0.262 ± 0.0032
CCGGTCTC | -0.163 ± 0.054
AGCATGCG | -0.0367 ± 0.068
ACTAGAGA | -0.268 ± 0.15
AGTACTCA | -0.105 ± 0.04
GTACCGGA | -0.239 ± 0.011
GGGGGTTA | -0.156 ± 0.038
CCGGGATA | -0.146 ± 0.014
CGCCGTCC | -0.146 ± 0.077
GCGCGCAA | 0.213 ± 0.029
CTACTATA | -0.32 ± 0.021
ACAAGGAA | -0.183 ± 0.04
ACAATCCC | 0.0605 ± 0.02
AAGTTGGT | -0.0114 ± 0.097
CAAGTGTA | 0.249 ± 0.051
AAGATGGG | 0.0523 ± 0.063
CGTTCTAA | -0.125 ± 0.0024
GCCGTCGA | -0.0165 ± 0.011
TCACCCAA | 0.0846 ± 0.028
CAACCACC | -0.0489 ± 0.062
GGCTCCCA | -0.0523 ± 0.044
ATTGCCGC | 0.0762 ± 0.043

Sequence | PBM E-score of 8-mer
ATGGAGGG | -0.0404 ± 0.12
AGTCCATG | 0.00336 ± 0.0095
ACCTGAAC | -0.0151 ± 0.0025
GCTGATCC | -0.15 ± 0.062
AAAATATC | 0.0896 ± 0.046
AGAATAAC | 0.0583 ± 0.052
CGGTACAA | -0.199 ± 0.02
AGAAGCCT | -0.158 ± 0.051
CGGTAGAG | 0.0309 ± 0.1
CGGCCCGC | -0.162 ± 0.024
AGGCTGGC | -0.111 ± 0.082
AAACAACG | -0.00585 ± 0.023
AGGCCTTG | -0.325 ± 0.014
GAGGTCGA | -0.0955 ± 0.014
GTGGATAA | 0.0538 ± 0.043
AACAACCT | 0.228 ± 0.017
AGGGTATC | -0.107 ± 0.025
AACACGTC | 0.372 ± 0.009
CGCCAACC | 0.222 ± 0.045
GGTAGAAA | -0.0328 ± 0.017
GCATCTCC | -0.148 ± 0.05
ACACTCTC | 0.3695 ± 0.0036
AGCGAAAC | -0.0989 ± 0.038
CCGCCACA | 0.157 ± 0.021
CTTTTTCC | -0.132 ± 0.081

Sequence | PBM E-score of 8-mer
AGATATAT | -0.0833 ± 0.098
AGTGACCC | 0.0454 ± 0.0085
ATTGATCA | 0.0353 ± 0.0021
AATATCGC | 0.195 ± 0.093
CGCGATTA | 0.276 ± 0.026
CCCAAACA | -0.2 ± 0.019
GAGTTTCA | -0.0835 ± 0.035
CCACGCGC | 0.215 ± 0.083
CCGTTGTA | -0.101 ± 0.0039
GCGTGTAC | 0.114 ± 0.011
GATTTCGC | 0.312 ± 0.018
ATAGATCG | 0.0137 ± 0.011
CACGCAGC | 0.052 ± 0.043
AATACTTG | -0.0104 ± 0.015
AGTACGTC | -0.00329 ± 0.092
CAAGTTAG | -0.0678 ± 0.046
CTCTAAAA | -0.0823 ± 0.057
GCAGCTAC | -0.0942 ± 0.041
AAGATTTA | 0.02 ± 0.041
CGCCTAAA | 0.126 ± 0.0092
AGGTCAGC | -0.0859 ± 0.025
CCCATGCG | -0.0538 ± 0.042
TATATCAA | -0.174 ± 0.03
CAAGTGAG | 0.2355 ± 0.00093
AATAGAGT | 0.0106 ± 0.055

Sequence | PBM E-score of 8-mer
CAATGTAA | 0.0482 ± 0.014
TAAAACGA | -0.00372 ± 0.1
ATGTACCC | -0.0278 ± 0.015
ACAACCAG | 0.0822 ± 0.017
AAAACCGA | -0.0359 ± 0.11
AGCAGGGA | 0.145 ± 0.048
ATTAATCA | -0.102 ± 0.018
TCATGACA | 0.172 ± 0.023
GAACGACC | -0.0991 ± 0.057
CCTGAAGA | -0.196 ± 0.029
TCCCGTCA | 0.131 ± 0.014
CTCCACAG | -0.0194 ± 0.034
AATGTCTG | -0.0358 ± 0.0065
AATCGAGG | 0.143 ± 0.077
CGCGATGA | 0.17 ± 0.015
GCGTCGAA | 0.0237 ± 0.026
CCTGCGAA | 0.367 ± 0.0099
CAGCAGAA | -0.184 ± 0.057
CCCATCCC | -0.253 ± 0.041
CTAACTAG | 0.0135 ± 0.086
CTACACGA | -0.138 ± 0.0086
AAACATCC | -0.0301 ± 0.062
ATGGCAAA | -0.201 ± 0.017
AACATGAG | -0.0951 ± 0.0035
AGAAGAAC | -0.258 ± 0.0064

Sequence | PBM E-score of 8-mer
CGCATGAA | -0.0519 ± 0.012
AATGTATC | -0.0326 ± 0.042
CACACACA | 0.3384 ± 0.00066
AGGCACAT | -0.0779 ± 0.053
AGGCAGTG | -0.23 ± 0.038
ACCTCTCG | 0.151 ± 0.0051
ATGTAGCG | -0.0672 ± 0.014
ATAGAGGA | -0.171 ± 0.091
AGGCCGCC | -0.211 ± 0.04
ACCGGCCA | -0.0189 ± 0.059
GAGATCCC | -0.0427 ± 0.023
AATGGATC | -0.0632 ± 0.037
GAGATAAA | -0.0976 ± 0.1
ACCTCAGA | 0.0888 ± 0.023
AGTCACAT | 0.1318 ± 0.0012
TGTGGTAA | 0.133 ± 0.02
CTCACAAC | 0.323 ± 0.0075
TAATCGGA | 0.0595 ± 0.1
ATCCTCGA | 0.0575 ± 0.0023
CGTTAAGA | 0.0695 ± 0.037
CGCGAGAG | 0.261 ± 0.023
ACGGAAAA | -0.112 ± 0.0046
